The campaign covered roughly 91,000 compounds. About 130 (0.14%) were called active. This list was built around the results that the source calls inconclusive (neither active nor inactive); the mix of calls is not that of the screen. Calls follow the shape of the dose curve; as a rule, active = well fitted inhibition curve with a large enough effect; inconclusive = small, poorly fitted or top-dose-only effect; inactive = flat fitted curve, though single readings scatter. Where the call is inconclusive, the potency comes from a doubtful curve fit.
Test system: Uracil-DNA glycosylase
Assay: Primary qHTS assay for inhibitors of Activation Induced Cytidine Deaminase (AID): UDG Counterscreen signal; also: nearly all actives have a fitted effect of over 65% in size
Conditions: FRET deamination/UDG coupled assay, UDG read, 4 h; series mostly up to 115 µM
Potency is read from the fitted curve at half-maximal effect; tags tell the direction and shape of the fitted curve.

Compound | Potency
Cc1ccc(C(=O)Nc2cccc3cccnc23)cc1C | inconclusive: 89.1 µM [inhibitor, single point]
Cc1cc(C)cc(-n2c(C)nc3cc(C(=O)NCc4ccc(F)cc4)ccc32)c1 | inconclusive: 79.4 µM [inhibitor, partial curve, poor fit]
O=C1/C(=C/c2ccc(F)c(Br)c2)Cc2ccccc21 | inactive
CC1=C(C(=O)N(CC(=O)NCc2ccc(C)cc2)c2ccc(Cl)cc2)SCCO1 | inactive
CN1CCN(c2ccc(-c3nc(-c4ccccc4)no3)cc2[N+](=O)[O-])CC1 | inconclusive: 70.8 µM [inhibitor, single point]
NNCCc1ccccc1 | active: 31.6 µM
COc1cccc(-c2nn(C)c3sc(C(=O)N4CCN(c5cccc(C(F)(F)F)c5)CC4)cc23)c1 | inconclusive: 79.4 µM [inhibitor, partial curve]
COc1ccc(Cl)cc1NC(=O)N1CCC2(CC1)Oc1ccccc1C(=O)N2Cc1ccc(F)cc1 | inconclusive: 70.8 µM [inhibitor, single point]
CCOc1ccc(-c2c(C)nn3c(C)c(C(=O)NC(C)c4ccccc4)cnc23)cc1OCC (stereo not given) | inconclusive: 28.2 µM [inhibitor, single point]
COc1cc2nc(NCCc3ccc(Cl)cc3)n3nc(-c4ccccc4)nc3c2cc1OC | inconclusive: 100 µM [inhibitor, partial curve, poor fit]
CCc1ccc(NC(=O)C2(c3cccs3)CCOCC2)cc1 | inconclusive: 89.1 µM [inhibitor, single point]
O=C(NCCN1CCOCC1)c1nn(-c2ccccc2)c(=O)c2ccccc12 | inactive
CCOC(=O)c1scc(-c2ccc(C)cc2)c1S(=O)(=O)Nc1cc(C)ccc1C | inconclusive: 89.1 µM [inhibitor, single point]
CC(C)CCn1c(SC(C)C)nc2c1c(=O)[nH]c(=O)n2C | inactive
COC(=O)c1ccccc1NC(=O)Cc1nc(-c2ccc(OC)cc2)no1 | inconclusive: 89.1 µM [inhibitor, single point]
CCOc1ccc2oc(=O)cc(-c3cc4ccccc4o3)c2c1 | inactive
OCCCC1CCCN1 (stereo not given) | inactive
Cc1cc(-n2c(C)nc3ccccc3c2=O)ccc1NC(=O)c1cccc([N+](=O)[O-])c1C | active: 89.1 µM
Cc1c(-c2ccc(Cl)cc2)nc2ccccc2c1C(=O)NC1CCCCCC1 | inactive
COc1ccccc1CNC(=O)Nc1ccc2c(c1)N(C)C(=O)c1ccccc1S2 | inconclusive: 89.1 µM [inhibitor, single point]
C=Cc1ccc(Cn2c(=O)n(-c3ccccc3C)c(=O)c3c4c(sc32)CN(C(C)=O)CC4)cc1 | inactive
COC(=O)c1c(C)oc2c1cc(NS(=O)(=O)c1c(C)cc(C)cc1C)c1ccccc12 | inconclusive: 100 µM [inhibitor, partial curve, poor fit]
Cc1cccc(N2N=C(C(=O)Nc3ccc(S(=O)(=O)N4CCCCCC4)cc3)CCC2=O)c1 | inactive
COc1ccc(NC(=O)Cn2c(=O)n(-c3cccc(C)c3)c(=O)c3c2c2cc(C)ccc2n3C)cc1OC | inconclusive: 89.1 µM [inhibitor, single point]

Compound | Potency
Cc1ccc(NC(=S)NNC=O)cc1 | inactive
NNc1ccc(S(=O)(=O)O)cc1 | inactive
CCOC(=O)c1cc(C)nc2c1c(=O)n(Cc1nc(-c3cc(C)ccc3C)oc1C)c(=O)n2C | inactive
O=C(NCc1ccccc1F)C(=O)NCC(c1cccs1)S(=O)(=O)c1cccs1 (stereo not given) | inconclusive: 100 µM [inhibitor, single point]
CCOc1ccccc1NC(=O)c1c(NCc2ccc(C)o2)sc2c1CCCCC2 | inconclusive: 79.4 µM [inhibitor, partial curve, poor fit]
CCOc1ccc(CN2CCN(S(=O)(=O)c3ccc(Cl)cc3)CC2)cc1 | inconclusive: 70.8 µM [inhibitor, single point]
CCN(CC)CC1CCN(C(=O)/C=C/c2ccc(C#N)cc2)CC1 | inactive
CCS(=O)(=O)N1CCc2cc(C(=O)N3CCN(c4ccccc4)CC3)ccc21 | inconclusive: 89.1 µM [inhibitor, single point]
CCCCCCc1ccc(C(=O)Nc2ccc(C)cc2)cc1 | inactive
COC(=O)c1ccccc1NC(=O)c1ncoc1-c1ccco1 | inconclusive: 89.1 µM [inhibitor, single point]
Cc1ccccc1OCCSc1nc2ccc(NC(=O)c3ccccc3)cc2s1 | inconclusive: 100 µM [inhibitor, single point]
CCCN1C(=O)c2[nH]nc(-c3ccccc3O)c2C1c1ccc(OCc2ccccc2)c(OC)c1 (stereo not given) | inconclusive: 89.1 µM [inhibitor, single point]
Cc1cc(C)cc(NC(=O)C(=O)NCC(c2cccnc2)N2CCc3ccccc3C2)c1 (stereo not given) | inconclusive: 79.4 µM [inhibitor, single point]
Cc1oc2cc(OCC(=O)NCCCOC(C)C)ccc2c(=O)c1-c1ccc(Cl)cc1 | inconclusive: 89.1 µM [inhibitor, single point]
CCOC(=O)c1c(C)oc2nc(C)nc(NCc3ccc(OC)cc3OC)c12 | inconclusive: 89.1 µM [inhibitor, partial curve, poor fit]
Cc1ccc(CNS(=O)(=O)c2ccc3[nH]c4c(c3c2)CCCC4)cc1 | inactive
O=[N+]([O-])c1cc(S(=O)(=O)Nc2ccc(Cl)cc2)ccc1N/N=C/c1ccccc1Br | inactive
Cc1cc(C)n(CCc2nc3c4ccccc4nc(N4CCN(c5ccccc5)CC4)n3n2)n1 | inconclusive: 89.1 µM [inhibitor, single point]
COc1cccc(CNC(=O)C2CCCCN2S(=O)(=O)c2ccc(F)cc2)c1 (stereo not given) | inconclusive: 70.8 µM [inhibitor, partial curve, poor fit]
N#Cc1nc(COc2ccc(Br)cc2)oc1NCc1ccco1 | inactive
COc1ccc(CNC(=O)c2cnc3ccccc3n2)cc1 | inactive
CC(=O)Nc1cn(-c2ccc(C(=O)Nc3ccccc3)cc2)cn1 | inconclusive: 89.1 µM [inhibitor, single point]
CSc1ccc(CCNC(=O)c2ccc(-c3nc(COc4ccccc4)c(C)o3)cc2)cc1 | inconclusive: 89.1 µM [inhibitor, single point]
COc1cccc(NC(=O)CSc2nnc3scc(-c4ccc(Cl)cc4)n23)c1 | inconclusive: 31.6 µM [inhibitor, partial curve, poor fit]

Compound | Potency
COc1ccc(N(C(=O)c2ccc(OC)c(OC)c2)S(=O)(=O)c2ccc(Cl)cc2)cc1 | inconclusive: 89.1 µM [inhibitor, single point]
COCCCNCc1ccccc1C | inactive
Cc1c(C(=O)Nc2cccc(F)c2)oc2c1-c1nn(Cc3c(F)cccc3Cl)cc1CC2 | inconclusive: 39.8 µM [inhibitor, single point]
O=C(Nc1nc2ccc(F)cc2s1)c1nc(SCc2ccccc2F)ncc1Cl | inconclusive: 89.1 µM [inhibitor, single point]
Cc1c(Cl)cccc1NC(=O)C1CCCN(C(=O)c2cnn(-c3ccccc3)c2-n2cccc2)C1 (stereo not given) | inconclusive: 50.1 µM [inhibitor, partial curve, poor fit]
CCc1ccc(C(=O)COc2c(C)cc(Br)cc2Cl)cc1 | inactive
O=C(Nc1cc(C(F)(F)F)ccc1Cl)c1cc(-c2cccs2)nc2ccccc12 | inactive
COC(=O)c1cccc(Cn2nnc3sc4c(c3c2=O)CCC(C(C)(C)C)C4)c1 (stereo not given) | inconclusive: 100 µM [inhibitor, single point]
Cc1ccccc1NC(=O)Cn1c(=O)n(CCc2ccccc2)c(=O)c2sc3ccccc3c21 | inactive
Cc1cccc(-n2c(SCc3nc(-c4ccccc4C)no3)nnc2-c2ccccc2)c1 | inactive
CC1(C)CCCC(C)(C#CCN2CCC(Cc3ccccc3)CC2)O1 (stereo not given) | inconclusive: 79.4 µM [inhibitor, partial curve, poor fit]
CCc1ccc(Nc2ncnc3c2cnn3-c2cccc(C)c2)cc1 | inactive
COc1ccc(CCNC(=O)Cn2c(=O)n(-c3ccc(C)c(C)c3)c(=O)c3c(C)c(C)sc32)cc1OC | inconclusive: 89.1 µM [inhibitor, single point]
CCN(c1ccccc1)C(CNS(=O)(=O)c1ccccc1)c1ccccc1 (stereo not given) | inconclusive: 79.4 µM [inhibitor, partial curve, poor fit]
COc1ccc2c(CNCc3ccc(C)o3)c(C(=O)O)n(Cc3ccccc3C)c2c1 | inactive
O=C(O)CCCCCCCC(=O)O | inactive
CCOc1ccccc1OC(=O)c1ccc(F)cc1Cl | inactive
O=C(/C=C/c1cccc(C(F)(F)F)c1)c1cc(Cl)ccc1Cl | inactive
CCCCN(CCCC)CCNC(=O)c1cn(CC)c2ccc(S(=O)(=O)N3CCc4ccccc4C3)cc2c1=O | inconclusive: 22.4 µM [inhibitor, partial curve, poor fit]
Cc1oc(-c2cccc(Cl)c2)nc1CN1CCC(C(=O)NCCCN2CCN(c3ccccc3F)CC2)CC1 | inactive
COc1ccc(N(Cc2cccs2)C(=O)c2ccc(Br)o2)cc1 | inconclusive: 70.8 µM [inhibitor, partial curve, poor fit]
CCc1ccc(NC(=O)Cn2c(=O)n(Cc3nc(-c4ccccc4)no3)c(=O)c3cc4c(cc32)OCO4)cc1 | inconclusive: 28.2 µM [inhibitor, partial curve, poor fit]
